Reference: US11963941B2, “Use of a fasting mimicking diet to enhance the efficacy of antiestrogens in cancer” (UNIVERSITA' DEGLI STUDI DI GENOVA, priority 2016, dated 2024)

Assays:
Type in all cases: cell-based
ZR-75-1 cells [1] = experiment: Cell cycle analysis (G1 arrest); conditions: 10 μM tamoxifen, 24 h, FIG. 2B
ZR-75-1 cells [2] = experiment: Cell viability in control vs fasting mimicking (FMD) medium; conditions: FMD = low-glucose (0.5 g/L) DMEM, 1% FBS, vs regular medium, FIG. 1B
ZR-75-1 cells [3] = experiment: Gene expression by QPCR

Structure (SMILES) | induction of a G1 cell cycle arrest, drug + FMD (ZR-75-1 cells [1]) | cell viability: potentiation of drug activity by FMD conditions (ZR-75-1 cells [2]) | TTF1 expression (ERα-mediated transcription) (ZR-75-1 cells [3]; FMD + tamoxifen 5 μM, 24 h, FIG. 4B) | RAD51 expression at the mRNA level (ZR-75-1 cells [3]; FMD + tamoxifen 5 μM, 24 h, FIG. 6A) | downregulation of cell cycle promoting genes (E2F1, E2F2 and CCNE1) (ZR-75-1 cells [3]; FMD + tamoxifen 10 μM vs single treatments, FIG. 2D)
C[C@]12CC[C@@H]3c4ccc(O)cc4C[C@@H](CCCCCCCCC[S+]([O-])CCCC(F)(F)C(F)(F)F)[C@H]3[C@@H]1CC[C@@H]2O (stereo partly drawn) [fulvestrant] | increased the ability | – | – | – | –
CC/C(=C(\c1ccccc1)c1ccc(OCCN(C)C)cc1)c1ccccc1 [tamoxifen] | increased the ability | strong potentiation | increase the ability of tamoxifen to reduce TTF1 expression | strong RAD51 downregulation | more pronounced
